{"source": "PubChem BioAssay AID686970", "about": "(National Center for Advancing Translational Sciences (NCATS), 2013)", "note": "About 6,000 (1.7%) of roughly 360,000 compounds were called active. Inconclusive results, whose numbers are uncertain, are shown with a selection of clear calls. Calls come from the whole dose curve; as a rule, active = well fitted cell-killing curve with a large enough effect; inconclusive = small, poorly fitted or top-dose-only effect, or effect the other way; inactive = flat fitted curve, though single readings scatter. Potencies of inconclusive entries are left out as doubtful fits. Potency is the fitted concentration of half-maximal effect; tags give direction and shape of the fitted curve."}
{"experiment": "qHTS for induction of synthetic lethality in tumor cells producing 2HG: qHTS for the HT-1080-NT fibrosarcoma cell line;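 note: NT is the 2HG producing partner of a matched IDH1 knockdown line; nearly all actives have a fitted effect of over 55% in size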;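 for activity, negative = less viability: 0% = DMSO-treated cells and -100% = media-only wells without cells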", "settings": "HT-1080-NT fibrosarcoma viability, CellTiter-Glo ATP luminescence, 48 h; activity, negative = less viability: at 46.1 µM (top of the series) unless noted", "procedure,_shortened": "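Viability by CellTiter-Glo luminescence after 48 h compound exposure at 37C of HT-1080-NT cells (750/well, RPMI, 5% FBS). % activity scaled between DMSO wells and medium-only wells, then curve-fitted and categorized by curve class.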"}
{"smiles": "CCOC(=O)c1c(C)nc2cc(C)ccn12", "Potency": "inconclusive [cytotoxic, single point]"}
{"smiles": "COc1ccc(-c2nc(-c3ccccc3)no2)c(OC)c1", "Potency": "inconclusive [cytotoxic, single point]"}
{"smiles": "COc1ccc(Cl)cc1C(=O)NNC1CC(=O)N(Cc2ccc(Cl)cc2)C1=O", "note": "(stereo not drawn)", "activity, negative = less viability": "inactive: 7.9%"}
{"smiles": "COC(=O)Nc1ccc(S(=O)(=O)N2CCN(C)CC2)cc1", "activity, negative = less viability": "inactive: 17.1%"}
{"smiles": "Cc1c(C(=O)Nc2ccccc2F)sc2nc3n(c(=O)c12)CCC3", "activity, negative = less viability": "inactive: 11.4%"}
{"smiles": "COc1cccc(NC(=O)CSc2nnc(-c3ccoc3C)n2CC2CCCO2)c1", "note": "(stereo not drawn)", "activity, negative = less viability": "inconclusive: 30.1%"}
{"smiles": "Cc1nn(Cc2ccccc2)c(C)c1/C=N/NC(=O)c1ccccc1O", "Potency": "inconclusive [cytotoxic, single point]"}
{"smiles": "C/C(=N\\Nc1cccc2cccnc12)c1ccc[nH]1", "activity, negative = less viability": "inactive: 0%"}
{"smiles": "COc1ccc(-c2[nH]ncc2Oc2ccccc2OC)c(O)c1", "Potency": "inconclusive [cytotoxic, single point]"}
{"smiles": "Cc1n[nH]c(=O)c2c(NC(=O)CSc3nncs3)oc(C)c12", "activity, negative = less viability": "inactive: -0.721%"}
{"smiles": "CC1CCCC(C)N1/N=C/c1ccccc1Br", "note": "(stereo not drawn)", "activity, negative = less viability": "inactive: 12.9%"}
{"smiles": "COc1cccc(/C=N/Nc2nccnc2Cl)c1O", "Potency": "inconclusive [cytotoxic, partial curve]"}
{"smiles": "COc1ccc(C2=Nc3ccccc3NC(=O)C2N(CCc2ccccc2)C(=O)c2cccs2)cc1", "note": "(stereo not drawn)", "Potency": "inconclusive [cytotoxic, single point]"}
{"smiles": "CCOC(=O)CN1C(=O)SC(Nc2ccc(C)cc2)C1=O", "note": "(stereo not drawn)", "activity, negative = less viability": "inactive: 7.09%"}
{"smiles": "O=C1C(Nc2cccc(O)c2)=C(N2CCCCC2)C(=O)c2ccccc21", "Potency": "inconclusive [cytotoxic, single point]"}
{"smiles": "NC(CCc1ccccc1)c1csc(Nc2ccc(C(=O)c3ccccc3)cc2)n1", "note": "(stereo not drawn)", "Potency": "inconclusive [cytotoxic, single point]"}
{"smiles": "Cc1ccc(NC(=O)CN(c2ccc(Cl)cc2)S(=O)(=O)c2cc([N+](=O)[O-])ccc2Cl)c(C)c1", "Potency": "inconclusive [cytotoxic, partial curve, poor fit]"}
{"smiles": "COc1cc2ccccc2cc1C(=O)Nc1ccc(C)cc1", "Potency": "inconclusive [cytotoxic, single point]"}
{"smiles": "Cc1ccc2[nH]c3c(c2c1)CN(C(=O)CN1c2ccc(F)cc2CCC1C)CC3", "note": "(stereo not drawn)", "Potency": "inconclusive [cytotoxic, single point]"}
{"smiles": "C=CCc1cccc(/C=N/NC(=O)CNc2ccccc2OC)c1O", "Potency": "inconclusive [cytotoxic, partial curve]"}
{"smiles": "CC(C(=O)NC1CCCCC1)N1CCN(C)CC1", "note": "(stereo not drawn)", "activity, negative = less viability": "inactive: 3.89%"}
{"smiles": "CN(C)CCCNc1c2ccccc2nc2ccccc12", "Potency": "active: 4.11 µM"}
{"smiles": "CC(=O)Nc1ccc(S(=O)(=O)NNC(=O)COc2cccc3ccccc23)cc1", "Potency": "inconclusive [cytotoxic, single point]"}
{"smiles": "O=C(NS(=O)(=O)N1CCOCC1)C1=C(N2CCCC2)COC1=O", "activity, negative = less viability": "inactive: 4.95%"}
{"smiles": "Oc1ccc(C2CNCc3sccc32)cc1O", "note": "(stereo not drawn)", "Potency": "inconclusive [cytotoxic, single point]"}
{"smiles": "CN(C(=O)c1ccccc1C(=O)OCC(=O)NCc1cccs1)C1CCCCC1", "activity, negative = less viability": "inactive: -4.57%"}
{"smiles": "O=C(NCc1ccccc1)C1=C[C@@H](C2CCCCC2)C[C@@H](OCc2ccc(CO)cc2)O1", "Potency": "inconclusive [cytotoxic, single point]"}
{"smiles": "COc1cc(CCNC(=O)c2ccccc2NC(=O)C2=C(C)OCCS2)cc(OC)c1OC", "activity, negative = less viability": "inconclusive: -7.11% [cytotoxic]"}
{"smiles": "Cc1cc2c(=Cc3ccc(N(C)C)cc3)c3ccccc3n2[n+]1C", "Potency": "active: 14.6 µM"}
{"smiles": "O=c1[nH]c2cc([N+](=O)[O-])c(NCCO)c([N+](=O)[O-])c2[nH]1", "activity, negative = less viability": "inactive: -6.81%"}
{"smiles": "NC(=O)c1nsc(C(=O)N(c2ccccc2F)C(C(=O)NCc2ccccc2)c2ccc(O)cc2)c1N", "note": "(stereo not drawn)", "Potency": "inconclusive [cytotoxic, single point]"}
{"smiles": "Cc1c(N=Cc2cc(Br)cc(Br)c2O)cccc1C(=O)O", "Potency": "active: 13 µM"}
{"smiles": "CC(C)(C)c1ccc(NC(=O)N2CCCN(c3c(Cl)cncc3Cl)CC2)cc1", "Potency": "inconclusive [rising, single point]"}
{"smiles": "CCc1cnc(Nc2nc(C(N)Cc3ccc(F)cc3)cs2)nc1", "note": "(stereo not drawn)", "Potency": "inconclusive [cytotoxic, single point]"}
{"smiles": "COc1ccc(N(CC(=O)Nc2cc(Cl)ccc2OC)S(=O)(=O)c2c(C)noc2C)cc1", "Potency": "inconclusive [cytotoxic, partial curve]"}
{"smiles": "Clc1cccc(Cl)c1C1Nc2cccc3cccc(c23)N1", "activity, negative = less viability": "inconclusive: -33.2% [cytotoxic]"}
{"smiles": "COc1ccc(-c2sc(C(=O)c3ccc(Cl)cc3Cl)cc2CC(=O)O)cc1", "Potency": "inconclusive [cytotoxic, single point]"}
{"smiles": "O=C(C#Cc1ccccc1)Nc1ccc(F)cc1", "Potency": "active: 16.4 µM"}
{"smiles": "NC(c1csc(Nc2ccc(C(=O)c3ccccc3)cc2)n1)c1ccccc1Cl", "note": "(stereo not drawn)", "Potency": "inconclusive [cytotoxic, single point]"}
{"smiles": "C=C1C(=O)[C@]23C[C@H]1CCC2[C@]1(C)C(=O)CC[C@@](C)(C(=O)O)C1C[C@@H]3O", "note": "(stereo partly drawn)", "Potency": "active: 6.51 µM"}
{"smiles": "CCOc1ccc2oc(C(=O)N(C)CC(=O)Nc3ccc(OCC)c(OCC)c3)c(C)c2c1", "activity, negative = less viability": "inactive: 0.031%"}
{"smiles": "O=[N+]([O-])c1c(NCCCO)cc(Sc2nc3ccccc3s2)c2nonc12", "Potency": "active: 11.2 µM"}
{"smiles": "CC1(C(=O)Nc2ccc3c(c2)OCCO3)CCN1Cc1ccc2ccccc2c1", "note": "(stereo not drawn)", "Potency": "inconclusive [cytotoxic, single point]"}
{"smiles": "COc1cc(NC(=O)C2CCN(S(=O)(=O)c3ccc(Cl)cc3)CC2)ccc1-n1cnnn1", "Potency": "inconclusive [cytotoxic, full curve]"}
{"smiles": "COc1ccccc1/C=N/Nc1nncc2ccccc12", "activity, negative = less viability": "inactive: 12%"}
{"smiles": "O=C(CSc1n[nH]c(=O)[nH]c1=O)Nc1ccc(C(=O)O)cc1", "activity, negative = less viability": "inconclusive: 32.7%"}
{"smiles": "CCOc1ccc(N(CC(=O)N/N=C/c2ccccn2)S(=O)(=O)c2ccc(Cl)cc2)cc1", "Potency": "inconclusive [cytotoxic, single point]"}
{"smiles": "Cc1ccc(-c2nnc(Oc3ccc(NC(=O)c4ccccc4)cc3)c3ccccc23)cc1", "activity, negative = less viability": "inactive: 14.9%"}
{"smiles": "CCOC(=O)C(=Cc1ccc(Br)cc1)C(=O)OCC", "Potency": "active: 20.6 µM"}
{"smiles": "COc1cccc(-c2cc(C(=O)Nc3cccnc3)no2)c1", "Potency": "inconclusive [cytotoxic, single point]"}
{"smiles": "CCC1CCCCN1S(=O)(=O)c1ccc(C(=O)Nc2nnc(-c3ccccc3Cl)o2)cc1", "note": "(stereo not drawn)", "Potency": "inconclusive [cytotoxic, single point]"}
{"smiles": "O=C(Cn1ncc(Cl)c(Cl)c1=O)N1CCN(Cc2ccccc2)CC1", "Potency": "inconclusive [cytotoxic, single point]"}
{"smiles": "C/C(=N\\NC(=O)c1cc(C)nc2ccccc12)c1ccncc1", "Potency": "inconclusive [cytotoxic, full curve]"}
{"smiles": "O=C(N/N=C/c1cccs1)c1cc(-c2ccc(Cl)s2)[nH]n1", "Potency": "inconclusive [cytotoxic, partial curve]"}
{"smiles": "CCCS(=O)(=O)NC(=O)C1(C)CCCN(C(=O)c2ccc(C#N)cc2)C1", "note": "(stereo not drawn)", "Potency": "inconclusive [rising, single point]"}
{"smiles": "CCCCCOc1ccc(C(=O)OC(C)C(=O)NCc2ccco2)cc1", "note": "(stereo not drawn)", "Potency": "inconclusive [cytotoxic, single point]"}
{"smiles": "Cc1cccc(CCNC(=O)C2CCN(S(=O)(=O)c3ccccc3)CC2)c1", "activity, negative = less viability": "inactive: 1.06%"}
{"smiles": "CC(=O)NCC(=O)N1CCCC(C(=O)c2ccc(-c3ccccc3)c(F)c2)C1", "note": "(stereo not drawn)", "activity, negative = less viability": "inconclusive: 30.6%"}
{"smiles": "CCN1C(=O)/C(=C\\N(C(C)=O)c2ccccc2)OC1=S", "Potency": "inconclusive [cytotoxic, single point]"}
{"smiles": "Cc1ccc(-c2noc(CN(C(=O)c3cccs3)C(C)C)n2)cc1", "Potency": "inconclusive [cytotoxic, single point]"}
{"smiles": "CCC(Sc1nc2ccccc2s1)C(=O)Nc1cc(C)on1", "note": "(stereo not drawn)", "activity, negative = less viability": "inactive: -8.23%"}
{"smiles": "C=CCc1ccc(OCCOCCOc2cccc3ccc(C)nc23)c(OC)c1", "Potency": "inconclusive [cytotoxic, single point]"}
{"smiles": "C=CCN1CCc2c(cc(O)c(O)c2Cl)C(c2ccccc2)C1", "note": "(stereo not drawn)", "Potency": "inconclusive [cytotoxic, single point]"}
{"smiles": "CCCN1CCN(CCCNC(=O)c2cc3c(s2)-c2c(C)cccc2OC3)CC1", "Potency": "active: 23.1 µM"}
{"smiles": "COc1ccc(-c2nc3c(c(=O)[nH]c(=O)n3Cc3ccccc3)n2Cc2ccccc2)cc1", "Potency": "inconclusive [cytotoxic, single point]"}
{"smiles": "COc1ccc(S(=O)(=O)N2CCCCCC2)cc1C(=O)OC(C)C(N)=O", "note": "(stereo not drawn)", "Potency": "inconclusive [cytotoxic, single point]"}
{"smiles": "COc1cccc(N/C(SCc2cccc([N+](=O)[O-])c2)=C(/C#N)C(N)=O)c1", "Potency": "inconclusive [cytotoxic, single point]"}
{"smiles": "CN(Cc1ccc2c(c1)CCCN2C)C(=O)[C@H]1O[C@@H](n2ccc(=O)[nH]c2=O)[C@H](O)[C@@H]1O", "activity, negative = less viability": "inactive: 29.8%"}
{"smiles": "Cc1ccccc1OCCC(=O)Nc1ccc(Cl)cc1F", "activity, negative = less viability": "inactive: -2.51%"}
{"smiles": "Cc1ccc(S(=O)(=O)CCC(=O)c2ccc(F)cc2)cc1", "Potency": "inconclusive [cytotoxic, single point]"}
{"smiles": "Oc1ccccc1-c1nc(NC2CCCC2)c2ccccc2n1", "Potency": "inconclusive [cytotoxic, single point]"}
{"smiles": "Nc1c(C(=O)NC2CCCC2)c2nc3ccccc3nc2n1N", "activity, negative = less viability": "inactive: -22.3%"}
{"smiles": "COc1ccc(NC(=O)c2cccc(-c3ccc(O)cc3)c2)cn1", "Potency": "inconclusive [cytotoxic, full curve]"}
